pIC50: −log10 of the molar value. IC50 is the fitted dose that halves viability relative to control wells, and lower means more sensitive; a limit (>, <) means that the fit lies beyond the doses tested. AUC is the area under the same curve over the 256-fold range up to the top dose, as a fraction; the more sensitive the line, the further below 1. For some assays here: An inferred top dose was derived from the fitted curves, not read from the paper.
Tests used:
Assay in all cases: Viability of human cancer cell lines after 72 h of drug (GDSC screen)
piperlongumine = compound: COc1cc(/C=C/C(=O)N2CCC=CC2=O)cc(OC)c1OC [piperlongumine]; settings: top dose 10 µM
Method: (§1)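 Human cancer cell lines in 384-well plates, medium with 10% serum, drug for 72 h over a 256-fold dose range (nine 2-fold or five 4-fold steps up to the top dose). Adherent lines were fixed and stained with the nucleic acid dye Syto60, suspension lines read with resazurin; signal relative to control wells, capped at 0 and 100%. One two-parameter sigmoid per drug and line, fitted in a mixed model over all curves with the slope shared within a line.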

ABT-263 = compound: CC1(C)CCC(c2ccc(Cl)cc2)=C(CN2CCN(c3ccc(C(=O)NS(=O)(=O)c4ccc(N[C@H](CCN5CCOCC5)CSc5ccccc5)c(S(=O)(=O)C(F)(F)F)c4)cc3)CC2)C1 [ABT-263]; settings: top dose 2 µM; top dose inferred
Method: as §1

GW 441756 = compound: Cn1cc(/C=C2\C(=O)Nc3cccnc32)c2ccccc21 [GW 441756]; settings: top dose 2 µM; top dose inferred
Method: as §1

PIK-93 = compound: CC(=O)Nc1nc(C)c(-c2ccc(Cl)c(S(=O)(=O)NCCO)c2)s1 [PIK-93]; settings: top dose 20 µM
Method: as §1

Row | Cell Line | AUC (piperlongumine) | pIC50 (piperlongumine) | AUC (ABT-263) | pIC50 (ABT-263) | AUC (GW 441756) | pIC50 (GW 441756) | AUC (PIK-93) | pIC50 (PIK-93)
1 | PCI-30 (head and neck, adherent) | 0.791 | 5.25 | 0.942 | < 5.70 | 0.983 | < 5.70 | 0.918 | < 4.70
2 | ESO26 (oesophagus, adherent) | 0.822 | 5.27 | 0.955 | < 5.70 | 0.989 | < 5.70 | 0.833 | 4.92
3 | NCI-H1781 (lung adenocarcinoma, adherent) | 0.92 | < 5.00 | 0.979 | < 5.70 | 0.913 | < 5.70 | 0.923 | < 4.70
4 | CAL-85-1 (breast, adherent) | 0.807 | 5.16 | 0.97 | < 5.70 | 0.978 | < 5.70 | 0.846 | < 4.70
5 | H2731 (mesothelioma, adherent) | 0.823 | 5.15 | 0.953 | < 5.70 | 0.879 | < 5.70 | 0.821 | 4.86
6 | K2 (melanoma, adherent) | 0.785 | 5.25 | 0.943 | < 5.70 | 0.823 | 5.78 | 0.884 | < 4.70
7 | PANC-02-03 (pancreas, adherent) | 0.79 | 5.26 | 0.933 | < 5.70 | 0.971 | < 5.70 | 0.626 | 5.52
8 | H4 (glioma, adherent) | 0.746 | 5.50 | 0.986 | < 5.70 | 0.968 | < 5.70 | 0.938 | < 4.70
9 | CAL-72 (osteosarcoma, adherent) | 0.681 | 5.66 | 0.916 | < 5.70 | 0.957 | < 5.70 | 0.984 | < 4.70
10 | H2869 (mesothelioma, adherent) | 0.813 | 5.15 | 0.925 | < 5.70 | 0.89 | < 5.70 | 0.846 | < 4.70
11 | BT-20 (breast, adherent) | 0.73 | 5.47 | 0.878 | < 5.70 | 0.98 | < 5.70 | 0.836 | 4.74
12 | DAN-G (pancreas, adherent) | 0.831 | 5.28 | 0.952 | < 5.70 | 0.985 | < 5.70 | 0.889 | 4.75
13 | COLO-679 (melanoma, adherent) | 0.766 | 5.39 | 0.985 | < 5.70 | 0.985 | < 5.70 | 0.909 | < 4.70
14 | WM-115 (melanoma, adherent) | 0.762 | 5.36 | 0.603 | 6.59 | 0.972 | < 5.70 | 0.689 | 5.32
15 | IPC-298 (melanoma, adherent) | 0.696 | 5.66 | 0.981 | < 5.70 | 0.987 | < 5.70 | 0.824 | 4.93
16 | Caov-4 (ovary, adherent) | 0.796 | 5.13 | 0.98 | < 5.70 | 0.723 | 6.14 | 0.906 | < 4.70

Row | Cell Line | AUC (piperlongumine) | pIC50 (piperlongumine) | AUC (ABT-263) | pIC50 (ABT-263) | AUC (GW 441756) | pIC50 (GW 441756) | AUC (PIK-93) | pIC50 (PIK-93)
17 | NCI-H2172 (non-small cell lung carcinoma, adherent) | 0.901 | < 5.00 | 0.957 | < 5.70 | 0.982 | < 5.70 | 0.945 | < 4.70
18 | HuP-T3 (pancreas, adherent) | 0.755 | 5.39 | 0.965 | < 5.70 | 0.919 | < 5.70 | 0.826 | 4.80
19 | KYSE-50 (oesophagus, adherent) | 0.957 | < 5.00 | 0.983 | < 5.70 | 0.971 | < 5.70 | 0.893 | < 4.70
20 | OSC-20 (head and neck, adherent) | 0.762 | 5.37 | 0.971 | < 5.70 | 0.98 | < 5.70 | 0.84 | 4.75
21 | HCC202 (breast, adherent) | 0.802 | 5.13 | 0.954 | < 5.70 | 0.889 | < 5.70 | 0.661 | 5.38
22 | MDA-MB-231 (breast, adherent) | 0.664 | 5.74 | 0.98 | < 5.70 | 0.983 | < 5.70 | 0.986 | < 4.70
23 | PANC-03-27 (pancreas, adherent) | 0.776 | 5.43 | 0.956 | < 5.70 | 0.988 | < 5.70 | 0.708 | 5.33
24 | SW1573 (lung adenocarcinoma, adherent) | 0.757 | 5.34 | 0.966 | < 5.70 | 0.973 | < 5.70 | 0.979 | < 4.70
25 | NCI-H1435 (lung adenocarcinoma, semi-adherent) | 0.943 | < 5.00 | 0.709 | 6.35 | 0.992 | < 5.70 | 0.949 | < 4.70
26 | BHT-101 (thyroid, adherent) | 0.736 | 5.52 | 0.86 | 5.75 | 0.79 | 6.04 | 0.691 | 5.36
27 | MDA-MB-468 (breast, adherent) | 0.715 | 5.61 | 0.92 | < 5.70 | 0.93 | < 5.70 | 0.85 | 4.85
28 | NCI-H1437 (lung adenocarcinoma, adherent) | 0.817 | 5.23 | 0.968 | < 5.70 | 0.945 | < 5.70 | 0.913 | < 4.70
29 | HCC1937 (breast, adherent) | 0.816 | 5.18 | 0.844 | 5.75 | 0.919 | < 5.70 | 0.829 | 4.82
30 | SNU-423 (liver, adherent) | 0.686 | 5.64 | 0.874 | < 5.70 | 0.904 | < 5.70 | 0.762 | 5.08
31 | Hs683 (glioma, adherent) | 0.904 | < 5.00 | 0.76 | 6.15 | 0.983 | < 5.70 | 0.896 | < 4.70
